{"source": "PubChem BioAssay AID1745845", "about": "(National Center for Advancing Translational Sciences (NCATS), 2022)", "note": "Where “and” joins values, the source holds several entries; their conditions need not be identical. Equal values may be shown once. In all, about 360,000 compounds went through this assay and about 2,600 (0.72%) were called active. The shares of active, inactive and inconclusive entries below differ from those in the screen. The call rests on the fitted dose curve; in most records, active means well fitted inhibition curve with a large enough effect; inconclusive means small, poorly fitted or top-dose-only effect; inactive means no such curve, though single readings can be large or run the other way. Potencies of inconclusive entries are doubtful fits and often do not repeat. On the % scale 0 is the no-effect control and ±100 the full control effect; potency means the concentration at half of the fitted maximal effect; tags describe the fitted curve by direction and shape.", "data": [{"assay": "Primary qHTS for Inhibitors of ATXN expression; further: nearly all actives have a fitted effect of over 55% in size", "conditions": "HEK-293 ATXN2-luciferase reporter, luminescence, 24 h; activity change, negative = inhibition: at 57 µM (top of the series)", "procedure,_shortened": "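ATXN2-luciferase reporter cells (luciferase flanked by upstream and downstream ATXN2 gene portions) were treated 24 h at 37 °C with compounds at up to 57 uM. SteadyGlo luminescence gave expression; GF-AFC fluorescence gave viability.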", "values": [{"smiles": "O=C(/C=C/Nc1ccc(F)cc1)c1cccs1", "Potency": "inactive"}, {"smiles": "O=C(NC(=S)/C(=C1\\CCCCCN1)[N+](=O)[O-])c1ccccc1", "Potency": "inconclusive: 17.8 µM [inhibitor, single point]"}, {"smiles": "CCOC(=O)c1cccc(NC(=O)Cc2ccc(NC(=O)N3CCCCc4ccccc43)cc2)c1", "Potency": "inactive"}, {"smiles": "Cc1ccc(C(=O)Nc2ccc(Cc3ccncc3)cc2)cc1[N+](=O)[O-]", "Potency": "inactive"}, {"smiles": "C=C(C)COc1ccc(-c2n[nH]c(C)c2-c2ccc(OC)cc2)c(O)c1", "Potency": "inconclusive: 39.8 µM [inhibitor, single point]"}, {"smiles": "CCc1ccc(NC(=O)CSc2nc(=O)n(Cc3cccnc3)c3c2CCC3)cc1", "Potency": "inconclusive: 39.8 µM [inhibitor, single point]"}, {"smiles": "Cc1ccc(CCNC(=O)C2CCN(S(=O)(=O)c3ccc4c(c3)NC(=O)C(C)S4)CC2)cc1", "note": "(stereo unspecified)", "Potency": "inconclusive: 31.6 µM [inhibitor, single point]"}, {"smiles": "CCC1CCCCN1CCCNC(=O)c1ccc2c(c1)N(Cc1cccc(C)c1)C(=O)c1ccccc1S2(=O)=O", "note": "(stereo unspecified)", "Potency": "inconclusive: 39.8 µM [inhibitor, single point]"}, {"smiles": "Cc1ccc(S(=O)(=O)N2C[C@@H]3CCCC[C@@H]3[C@@H](C)[C@H]2c2cn(Cc3ccccc3)c3ncccc23)cc1", "Potency": "inconclusive: 8.91 µM [inhibitor, full curve]"}, {"smiles": "COc1cc(OC)c(N(C)S(=O)(=O)c2cccc(C(=O)OCC(=O)NCc3ccco3)c2)cc1Cl", "Potency": "inconclusive: 0.947 µM [inhibitor, full curve, poor fit]"}, {"smiles": "CCC(c1nnnn1CCc1ccccc1)N1CCN(c2ccc(OC)cc2)CC1", "note": "(stereo unspecified)", "Potency": "inactive"}, {"smiles": "O=C(O)c1ccc(-n2nc(-c3ccccc3O)nc2-c2ccccc2O)cc1", "Potency": "inconclusive: 28.2 µM [inhibitor, partial curve] and inconclusive: 27.3 µM [inhibitor, partial curve]"}, {"smiles": "Cc1cc(C(=O)NC2CCCc3c2cnn3-c2cc(F)cc(F)c2)nn1C", "note": "(stereo unspecified)", "Potency": "inactive"}, {"smiles": "CCC(C)N(CC(=O)Nc1cccc(C)c1C)C(=O)CCl", "note": "(stereo unspecified)", "Potency": "active: 2.99 µM"}, {"smiles": "COc1cccc(-c2nnc(-c3ccc4ccccc4c3)o2)c1", "Potency": "inactive"}, {"smiles": "C/C(=N\\NC(=O)C12CCC(C)(C(=O)O1)C2(C)C)c1ccccc1O", "note": "(stereo unspecified)", "Potency": "active: 28.2 µM"}, {"smiles": "O=C(N/N=C/c1cccs1)c1cc(C2CC2)nc2ccccc12", "Potency": "inconclusive: 10.6 µM [inhibitor, partial curve, poor fit]"}, {"smiles": "O=C(CC1c2cc(F)ccc2C=C(c2ccsc2)N1c1ccc(C#CCCO)cc1)c1ccco1", "note": "(stereo unspecified)", "Potency": "inconclusive: 39.8 µM [inhibitor, partial curve, poor fit]"}, {"smiles": "CSc1ccc(CCNC(=O)c2sc3ncccc3c2-n2cccc2)cc1", "Potency": "inconclusive: 22.4 µM [inhibitor, partial curve, poor fit]"}, {"smiles": "CC(C)Cc1nc(Cl)c(C#N)c2c1CCC2", "Potency": "inconclusive: 37.7 µM [inhibitor, partial curve, poor fit]"}, {"smiles": "O=C(N/N=C/c1c[nH]c2ccccc12)c1cc(-c2ccc3ccccc3c2)n[nH]1", "Potency": "inactive"}, {"smiles": "Clc1nc(Cl)c2ncn(-c3ccccc3)c2n1", "Potency": "inconclusive: 39.8 µM [inhibitor, single point]"}, {"smiles": "CN=c1scc(-c2cccs2)n1/N=C/c1ccccc1O", "Potency": "inconclusive: 1.26 µM [inhibitor, partial curve, poor fit]"}, {"smiles": "CCc1ccc(OC2(C)CCN(Cc3ccccc3OC(F)F)C2)cc1", "note": "(stereo unspecified)", "Potency": "inactive"}, {"smiles": "CC(=NNC(=O)c1ccncc1)c1ccccc1O", "Potency": "inconclusive: 3.98 µM [inhibitor, full curve]"}, {"smiles": "Cc1ccc(N=C2SC(C(=O)Nc3ccc(OC(F)(F)F)cc3)C(N)=C2C(=O)Nc2c(C)cc(C)cc2C)cc1", "note": "(stereo unspecified)", "Potency": "inconclusive: 18.9 µM [inhibitor, partial curve, poor fit]"}, {"smiles": "Cc1ccc(-n2ncc3c(N4CCN(C)CC4)ncnc32)cc1", "Potency": "inconclusive: 17.8 µM [inhibitor, single point]"}, {"smiles": "CCOc1cc([N+](=O)[O-])cc(/C=N/NC(=O)c2c(-c3ccccc3)noc2C)c1O", "Potency": "inconclusive: 39.8 µM [inhibitor, single point]"}, {"smiles": "O=C(Nc1nc2ccccc2s1)c1ccc2sc([C@H]3C[C@H](O)[C@@H](CO)O3)nc2c1", "Potency": "inconclusive: 39.8 µM [inhibitor, single point]"}, {"smiles": "COc1ccc(-c2oc3ncnc(NCCCN4CCOCC4)c3c2-c2ccc(OC)cc2)cc1", "Potency": "inconclusive: 17.8 µM [inhibitor, single point]"}, {"smiles": "Cc1ccc(S(=O)(=O)c2cc(C#N)c(=O)[nH]c2N)cc1", "Potency": "inconclusive: 20 µM [inhibitor, partial curve, poor fit]"}, {"smiles": "COc1ccccc1CC(=O)Nc1ccccc1O", "Potency": "inactive"}, {"smiles": "CC(C)C[C@H]1CNC(=S)N1C[C@H]1CCCN1C[C@H](CC(C)C)N1C[C@H](CC(C)C)N(CCc2ccccc2)C1=S", "Potency": "inconclusive: 3.16 µM [inhibitor, full curve, poor fit]"}, {"smiles": "NS(=O)(=O)c1ccc(Sc2ccccn2)c([N+](=O)[O-])c1", "Potency": "inactive"}, {"smiles": "Cc1occc1-c1nnc(SCC(=O)Nc2ccccc2N2CCCCC2)n1C", "Potency": "inactive"}, {"smiles": "COc1ccc(-c2cn3c(C)c(C(=O)N4CCCc5ccccc54)sc3n2)cc1", "Potency": "inconclusive: 23.8 µM [inhibitor, single point]"}, {"smiles": "Cc1ccc2nc(NC(=O)C3CCN(S(=O)(=O)c4cccs4)CC3)sc2c1", "Potency": "inconclusive: 11.2 µM [inhibitor, partial curve]"}, {"smiles": "Cn1ncc(Cl)c1C(=O)N1CCN(c2ccc(Cl)c(Cl)c2)CC1", "Potency": "inconclusive: 39.8 µM [inhibitor, partial curve, poor fit]"}, {"smiles": "COc1cccc(CNC(=O)CN2C(=O)CCCc3ccccc32)c1OC", "Potency": "inactive"}, {"smiles": "COc1ccc2[nH]c(=O)c(CN(CCCN(C)C)C(=O)Nc3ccccc3)cc2c1", "Potency": "inactive"}, {"smiles": "CC1(C)CCSC(/C=C/c2ccccc2)=N1", "Potency": "inconclusive: 37.7 µM [inhibitor, single point]"}, {"smiles": "CCN(C(=O)c1ccc(NC(C)=O)cc1)c1ccccc1C", "Potency": "inactive"}, {"smiles": "Cc1ccc2c(c1)c1c(n2CC(O)Cn2c(C)nc3ccccc32)CCCC1", "note": "(stereo unspecified)", "Potency": "inconclusive: 31.6 µM [inhibitor, partial curve]"}, {"smiles": "CN(C)CCCNc1ncnc2c1cnn2-c1ccccc1", "Potency": "inactive"}, {"smiles": "CCn1nc(NC(=O)c2ccncc2)c2cc3ccccc3nc21", "Potency": "inactive"}, {"smiles": "Cc1ccc2nc(SCC(=O)N3CCOCC3)[nH]c2c1", "Potency": "inactive"}, {"smiles": "Nc1ccncc1N", "Potency": "inconclusive: 39.8 µM [inhibitor, single point]"}, {"smiles": "O=C(c1ccco1)N1CCN(c2c(-c3ccccc3)c3cc(Cl)ccc3[nH]c2=O)CC1", "Potency": "inconclusive: 25.1 µM [inhibitor, single point]"}, {"smiles": "C=CCn1c(=O)/c(=C/c2ccc(Cl)cc2)s/c1=C(\\C#N)c1nnc2n1CCCCC2", "Potency": "inconclusive: 39.8 µM [inhibitor, single point]"}, {"smiles": "CCN(CC)CCNC(=O)c1ccc2nc(-c3ccccc3)c(-c3ccc(CN4CCC(n5c(=O)[nH]c6ccccc65)CC4)cc3)nc2c1", "Potency": "active: 27.3 µM"}, {"smiles": "Cc1cc2nc(-c3ccc(C#N)cc3)c(Cc3cccc(F)c3)n2c(C)c1Br", "Potency": "inconclusive: 10 µM [inhibitor, partial curve, poor fit]"}, {"smiles": "COc1ccc(C(=O)Nc2ccc(NC(=O)c3cccc(OC)c3)cn2)cc1", "Potency": "inactive"}, {"smiles": "CC(=O)Nc1cc(-c2ccccc2N(C)C)cn2c(-c3ccc(S(C)(=O)=O)cc3)cnc12", "Potency": "inconclusive: 20 µM [inhibitor, partial curve, poor fit]"}, {"smiles": "O=C(CCCOc1ccc(Cl)cc1Cl)NCCc1ccccn1", "Potency": "inconclusive: 2.38 µM [inhibitor, full curve, poor fit]"}, {"smiles": "CC(C)CCCN1C(Nc2ccccc2)=NC[C@@H]1CC(C)C", "Potency": "inactive"}, {"smiles": "CCc1cc2c(=O)oc(-c3ccccc3F)nc2s1", "activity change, negative = inhibition": "inconclusive: -42.9% [inhibitor]"}, {"smiles": "FC(F)(F)c1nc(-c2cccs2)ncc1-c1nnnn1-c1ccc(Cl)cc1", "Potency": "active: 22.4 µM"}, {"smiles": "CC(C)(C)c1ccc(C(=O)NCC(c2cccs2)S(=O)(=O)c2ccc(F)cc2)cc1", "note": "(stereo unspecified)", "Potency": "inconclusive: 25.1 µM [inhibitor, single point]"}, {"smiles": "COc1ccc(C(c2c(C)n(C)n(-c3ccccc3)c2=O)c2c(C)n(C)n(-c3ccccc3)c2=O)cc1", "Potency": "inconclusive: 2.12 µM [inhibitor, partial curve, poor fit]"}, {"smiles": "Cc1ccc2c(n1)sc1c(-c3ccc(Br)cc3)c(C#N)c(N)nc12", "Potency": "inconclusive: 22.4 µM [inhibitor, partial curve, poor fit]"}, {"smiles": "CN(C)C(=O)c1c(C(F)(F)F)nn(C)c1Cl", "activity change, negative = inhibition": "inconclusive: -40.8% [inhibitor]"}, {"smiles": "CCCCCCn1c(=O)n2n(c1=O)C[C@]1(OC(=O)NC3CCCC3)CN(S(=O)(=O)c3ccc(C)cc3)C[C@]1(O)C2", "Potency": "inconclusive: 25.1 µM [inhibitor, single point]"}, {"smiles": "CCN(CC)C(=O)[C@H]1C[C@H](CC(=O)NCCN2CCOCC2)C(=O)N2CCc3c([nH]c4ccc(Cl)cc34)[C@]12C", "Potency": "inactive"}, {"smiles": "C=CCNc1nnc(SC2CC(=O)N(c3ccc(OC)cc3)C2=O)s1", "note": "(stereo unspecified)", "Potency": "inconclusive: 39.8 µM [inhibitor, single point]"}, {"smiles": "CCc1nc2c(OCc3cc(Cl)cc(Cl)c3)cccn2c1N(C)C(=O)c1ccc(C)cc1", "Potency": "inconclusive: 28.2 µM [inhibitor, partial curve, poor fit]"}, {"smiles": "COc1ccccc1Cn1cc(C(=O)c2ccc(Cl)cc2)c(=O)c2cc3c(cc21)OCCO3", "Potency": "inactive"}]}]}
